According to the supplement of paper PMC8728848:
Some of the results follow.

Experiments:
Assay in all cases: glycan array binding signal (z-score within array); higher = stronger binding
Conditions in all cases: glycan notation: IUPAC condensed, linker removed
Gal3S(b1-4)Glc = molecular target: Gal3S(b1-4)Glc
Outline: (§1)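 From the Consortium for Functional Glycomics database, 3228 arrays were curated, keeping only those whose protein sequence was available. Binding is given as a within-array Z-score averaged across arrays sharing a protein sequence and across linkers. Negative Z-scores can be read as non-binding.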

Gal3S(b1-4)Glc6S = molecular target: Gal3S(b1-4)Glc6S
Outline: as §1

Gal3S(b1-4)GlcNAc = molecular target: Gal3S(b1-4)GlcNAc
Outline: as §1

[1] = molecular target: Gal3S(b1-4)[Fuc(a1-3)]Glc6S
Outline: as §1

[2] = molecular target: Gal3S(b1-4)[Fuc(a1-3)]GlcNAc
Outline: as §1

[3] = molecular target: Gal3S(b1-4)[Fuc(a1-3)]GlcNAc6S
Outline: as §1

Gal3S4S(b1-4)GlcNAc = molecular target: Gal3S4S(b1-4)GlcNAc
Outline: as §1

Gal3S6S(b1-4)GlcNAc = molecular target: Gal3S6S(b1-4)GlcNAc
Outline: as §1

Gal3S6S(b1-4)GlcNAc6S = molecular target: Gal3S6S(b1-4)GlcNAc6S
Outline: as §1

Gal4S(b1-4)GlcNAc = molecular target: Gal4S(b1-4)GlcNAc
Outline: as §1

Gal4S6S(b1-4)GlcNAc = molecular target: Gal4S6S(b1-4)GlcNAc
Outline: as §1

Gal6P(b1-4)GlcNAc = molecular target: Gal6P(b1-4)GlcNAc
Outline: as §1

Gal6S(b1-3)GlcNAc = molecular target: Gal6S(b1-3)GlcNAc
Outline: as §1

Gal6S(b1-3)GlcNAc6S = molecular target: Gal6S(b1-3)GlcNAc6S
Outline: as §1

Gal6S(b1-4)Glc = molecular target: Gal6S(b1-4)Glc
Outline: as §1

Gal6S(b1-4)Glc6S = molecular target: Gal6S(b1-4)Glc6S
Outline: as §1

Gal6S(b1-4)GlcNAc = molecular target: Gal6S(b1-4)GlcNAc
Outline: as §1

Gal6S(b1-4)GlcNAc6S = molecular target: Gal6S(b1-4)GlcNAc6S
Outline: as §1

GalNAc(a1-3)Gal = molecular target: GalNAc(a1-3)Gal
Outline: as §1

GalNAc(a1-3)GalNAc = molecular target: GalNAc(a1-3)GalNAc
Outline: as §1

[4] = molecular target: GalNAc(a1-3)GalNAc(b1-3)Gal(a1-4)Gal(b1-4)Glc
Outline: as §1

[5] = molecular target: GalNAc(a1-3)GalNAc(b1-3)Gal(a1-4)Gal(b1-4)GlcNAc
Outline: as §1

GalNAc(b1-3)Gal = molecular target: GalNAc(b1-3)Gal
Outline: as §1

[6] = molecular target: GalNAc(b1-3)Gal(a1-4)Gal(b1-4)GlcNAc
Outline: as §1

[7] = molecular target: GalNAc(b1-3)Gal(a1-4)Gal(b1-4)GlcNAc(b1-3)Gal(b1-4)Glc
Outline: as §1

[8] = molecular target: GalNAc(b1-3)Gal(a1-6)Gal(b1-4)Glc
Outline: as §1

GalNAc(b1-3)GalNAc = molecular target: GalNAc(b1-3)GalNAc
Outline: as §1

GalNAc(b1-3)GlcNAc = molecular target: GalNAc(b1-3)GlcNAc
Outline: as §1

GalNAc(b1-4)Gal(b1-4)Glc = molecular target: GalNAc(b1-4)Gal(b1-4)Glc
Outline: as §1

GalNAc(b1-4)GlcNAc = molecular target: GalNAc(b1-4)GlcNAc
Outline: as §1

[9] = molecular target: GalNAc(b1-4)GlcNAc(b1-2)Man
Outline: as §1

[10] = molecular target: GalNAc(b1-4)GlcNAc(b1-2)Man(a1-3)[GalNAc(b1-4)GlcNAc(b1-2)Man(a1-6)]Man(b1-4)GlcNAc(b1-4)GlcNAc
Outline: as §1

[11] = molecular target: GalNAc(b1-4)GlcNAc(b1-3)GalNAc(b1-4)GlcNAc
Outline: as §1

GalNAc(b1-4)GlcNAc6S = molecular target: GalNAc(b1-4)GlcNAc6S
Outline: as §1

GalNAc(b1-6)GalNAc = molecular target: GalNAc(b1-6)GalNAc
Outline: as §1

GalNAc3S(b1-4)GlcNAc = molecular target: GalNAc3S(b1-4)GlcNAc
Outline: as §1

GalNAc3S(b1-4)GlcNAc3S = molecular target: GalNAc3S(b1-4)GlcNAc3S
Outline: as §1

[12] = molecular target: GalNAc3S(b1-4)[Fuc(a1-3)]GlcNAc
Outline: as §1

GalNAc4S6S(b1-4)GlcNAc = molecular target: GalNAc4S6S(b1-4)GlcNAc
Outline: as §1

GalNAc6S(b1-4)GlcNAc = molecular target: GalNAc6S(b1-4)GlcNAc
Outline: as §1

Glc(a1-4)Glc = molecular target: Glc(a1-4)Glc
Outline: as §1

[13] = molecular target: Glc(a1-4)Glc(a1-4)Glc(a1-4)Glc
Outline: as §1

Glc(a1-6)Glc(a1-6)Glc = molecular target: Glc(a1-6)Glc(a1-6)Glc
Outline: as §1

[14] = molecular target: Glc(a1-6)Glc(a1-6)Glc(a1-6)Glc
Outline: as §1

Glc(b1-4)Glc = molecular target: Glc(b1-4)Glc
Outline: as §1

Glc(b1-6)Glc = molecular target: Glc(b1-6)Glc
Outline: as §1

GlcA(b1-3)Gal = molecular target: GlcA(b1-3)Gal
Outline: as §1

GlcA(b1-3)GlcNAc = molecular target: GlcA(b1-3)GlcNAc
Outline: as §1

GlcA(b1-6)Gal = molecular target: GlcA(b1-6)Gal
Outline: as §1

[15] = molecular target: GlcA3S(b1-3)Gal(b1-4)GlcNAc(b1-2)Man
Outline: as §1

[16] = molecular target: GlcA3S(b1-3)Gal(b1-4)GlcNAc(b1-3)Gal(b1-4)Glc
Outline: as §1

[17] = molecular target: GlcNAc(a1-3)Gal(b1-4)GlcNAc
Outline: as §1

[18] = molecular target: GlcNAc(a1-4)Gal(b1-3)GlcNAc
Outline: as §1

[19] = molecular target: GlcNAc(a1-4)Gal(b1-4)GalNAc
Outline: as §1

[20] = molecular target: GlcNAc(a1-4)Gal(b1-4)GlcNAc
Outline: as §1

[21] = molecular target: GlcNAc(a1-4)Gal(b1-4)GlcNAc(b1-3)Gal(b1-4)Glc
Outline: as §1

[22] = molecular target: GlcNAc(a1-4)Gal(b1-4)GlcNAc(b1-3)Gal(b1-4)GlcNAc
Outline: as §1

[23] = molecular target: GlcNAc(a1-4)Gal(b1-4)GlcNAc(b1-3)Gal(b1-4)GlcNAc(b1-3)Gal(b1-4)GlcNAc
Outline: as §1

[24] = molecular target: GlcNAc(a1-4)Gal(b1-4)GlcNAc(b1-3)Gal(b1-4)[Fuc(a1-3)]GlcNAc(b1-3)Gal(b1-4)[Fuc(a1-3)]GlcNAc
Outline: as §1

[25] = molecular target: GlcNAc(a1-6)Gal(b1-4)GlcNAc
Outline: as §1

B1: PX9896A-bth-573-26-573 (Bacteroides thetaiotaomicron) (protein)
chain: ETNNLKTKEDMYKYFGTSKSMLTHVYSYMPQGYQLFATSGGIFTEDRYSMRDCASDDGEFGAYADNIQNTNNGNWSPIKTYDDSWTLYRGIRAANSFIAEIAQVDFTRYEHDGQYTNWMKQLKYFPYEARVLRAHYFFELARRYGDIAMPLEVLTEEEANTIGKTPFSEVISFIVSECDDAANNLPDSYVNEPGAEIGRVTKGFAMAVKSKALLYAASKLHNPSMDTELWKKSAKAAIDIINTGLYSLDPQESANNLDSKEVVLMRINGDDSDFEMFNLPLRMTAGTRTSSLIPYSNYPSQNLVDAFETVNGYKVTLENTGWVCEDPAFDPQSPYENRDKRFYRAILANGMSFKDYTIETFKGGADDGIVSQGGSPTGYFLRKYIQEATSFEPGKEAVSKHHWVIYRYAETLLTYAESMVNAFNDVNYTDETYKYSALWAINEVRKNADMPLIPSMGKDEFMERLYNEWRVEFAFEDHRFWDVRRWKIADTTQRELYGVKIEKQADGTFNFYKNLYETRNWRDCMYLYPIPQSELYKNTNLNPQNTGW
glycan array binding signal (z-score) (Gal3S(b1-4)Glc): -0.136
glycan array binding signal (z-score) (Gal3S(b1-4)Glc6S): -0.084
glycan array binding signal (z-score) (Gal3S(b1-4)GlcNAc): -0.003
glycan array binding signal (z-score) [1]: -0.105
glycan array binding signal (z-score) [2]: -0.42
glycan array binding signal (z-score) [3]: 0.407
glycan array binding signal (z-score) (Gal3S4S(b1-4)GlcNAc): 0.471
glycan array binding signal (z-score) (Gal3S6S(b1-4)GlcNAc): -0.014
glycan array binding signal (z-score) (Gal3S6S(b1-4)GlcNAc6S): -0.205
glycan array binding signal (z-score) (Gal4S(b1-4)GlcNAc): 0.269
glycan array binding signal (z-score) (Gal4S6S(b1-4)GlcNAc): -0.373
glycan array binding signal (z-score) (Gal6P(b1-4)GlcNAc): -0.2
glycan array binding signal (z-score) (Gal6S(b1-3)GlcNAc): 0.519
glycan array binding signal (z-score) (Gal6S(b1-3)GlcNAc6S): 3.99
glycan array binding signal (z-score) (Gal6S(b1-4)Glc): 0.264
glycan array binding signal (z-score) (Gal6S(b1-4)Glc6S): 1.28
glycan array binding signal (z-score) (Gal6S(b1-4)GlcNAc): 0.263
glycan array binding signal (z-score) (Gal6S(b1-4)GlcNAc6S): 0.104
glycan array binding signal (z-score) (GalNAc(a1-3)Gal): 0.8
glycan array binding signal (z-score) (GalNAc(a1-3)GalNAc): -0.575
glycan array binding signal (z-score) [4]: -0.609
glycan array binding signal (z-score) [5]: -0.359
glycan array binding signal (z-score) (GalNAc(b1-3)Gal): -0.52
glycan array binding signal (z-score) [6]: 2.03
glycan array binding signal (z-score) [7]: -0.112
glycan array binding signal (z-score) [8]: -0.503
glycan array binding signal (z-score) (GalNAc(b1-3)GalNAc): 0.355
glycan array binding signal (z-score) (GalNAc(b1-3)GlcNAc): -0.426
glycan array binding signal (z-score) (GalNAc(b1-4)Gal(b1-4)Glc): -0.435
glycan array binding signal (z-score) (GalNAc(b1-4)GlcNAc): 0.356
glycan array binding signal (z-score) [9]: -0.396
glycan array binding signal (z-score) [10]: 0.273
glycan array binding signal (z-score) [11]: -0.28
glycan array binding signal (z-score) (GalNAc(b1-4)GlcNAc6S): 0.027
glycan array binding signal (z-score) (GalNAc(b1-6)GalNAc): 0.201
glycan array binding signal (z-score) (GalNAc3S(b1-4)GlcNAc): -0.145
glycan array binding signal (z-score) (GalNAc3S(b1-4)GlcNAc3S): -0.744
glycan array binding signal (z-score) [12]: -0.603
glycan array binding signal (z-score) (GalNAc4S6S(b1-4)GlcNAc): -0.36
glycan array binding signal (z-score) (GalNAc6S(b1-4)GlcNAc): -0.663
glycan array binding signal (z-score) (Glc(a1-4)Glc): 0.296
glycan array binding signal (z-score) [13]: -0.34
glycan array binding signal (z-score) (Glc(a1-6)Glc(a1-6)Glc): 0.41
glycan array binding signal (z-score) [14]: -0.252
glycan array binding signal (z-score) (Glc(b1-4)Glc): 0.069
glycan array binding signal (z-score) (Glc(b1-6)Glc): -0.484
glycan array binding signal (z-score) (GlcA(b1-3)Gal): -0.391
glycan array binding signal (z-score) (GlcA(b1-3)GlcNAc): -0.127
glycan array binding signal (z-score) (GlcA(b1-6)Gal): -0.573
glycan array binding signal (z-score) [15]: -0.777
glycan array binding signal (z-score) [16]: -0.272
glycan array binding signal (z-score) [17]: 0.441
glycan array binding signal (z-score) [18]: -0.08
glycan array binding signal (z-score) [19]: 0.484
glycan array binding signal (z-score) [20]: 0.48
glycan array binding signal (z-score) [21]: -0.859
glycan array binding signal (z-score) [22]: 0.138
glycan array binding signal (z-score) [23]: -0.364
glycan array binding signal (z-score) [24]: -0.534
glycan array binding signal (z-score) [25]: -0.484
